PubChem BioAssay AID445 (National Center for Advancing Translational Sciences (NCATS), 2006)
Among all 110,000 compounds or so, about 40 (0.04%) were called active. The inconclusive results got no clear call from the source; some entries with a clear call stand among them for comparison. Calls come from the whole dose curve; as a rule, active = well fitted curve in the direction sought with a large enough effect in the signal ratio (not every such curve was filed as active); inconclusive = small, poorly fitted or top-dose-only effect, or a change in a side signal; inactive = flat fitted curve, though single readings scatter; the % refers to the signal ratio. Potencies of inconclusive entries are doubtful fits and often do not repeat.

Experiment: IkB Signaling;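 for IkBa stabilization activation: 0% = basal untreated cells and 100% = reference inhibitor full response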
Settings: ABC-DLBCL IkBa-CBG/CBR dual luciferase ratio (green luciferase fused to IkBa over red control in OCI-Ly3 lymphoma cells), 4 h; IkBa stabilization activation: at 57.1 µM (top of the series), scaled: untreated 0%, proteasome inhibitor 100% unless noted
Method in brief: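 Curves were fitted separately to fusion (green), unfused (red) and ratio luminescence, then classed by r2, magnitude and activity. Cells: OCI-Ly3, 4 h compound plus doxycycline at 37C; 10 uM MG-132 defined full response.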
Potency is the fitted concentration of half-maximal effect.

Compound	IkBa stabilization activation	Potency
CN(C(=O)C(=O)Nc1ccc2nc3n(c(=O)c2c1)CCCCC3)c1cccc(C(F)(F)F)c1	inconclusive: 2.9% [signal inhibitor]	
O=C1NC(c2ccccn2)Nc2sc3c(c21)CCC3 (configuration not stated)	inconclusive: 10.2% [signal activator]	
CCc1ccc(CNC(=O)c2cc(-c3ccc(Br)s3)nc3ccccc23)cc1	inconclusive: 1.11% [signal inhibitor]	
O=C(O)CCCCn1ccc(=O)[nH]c1=O	inactive: -0.106% [at 11.4 µM, scaled: untreated 0%, proteasome inhibitor 100%]	
O=C(Nc1ccccc1)c1cccc(S(=O)(=O)Nc2cccc(F)c2)c1	inconclusive: 0.357% [signal inhibitor]	
COc1cccc(-c2ccc3c(N)c(C(=O)NCc4ccc(Cl)cc4)sc3n2)c1	inconclusive: 14.7% [signal inhibitor]	
CCOC(=O)N1CCc2c(sc(NCc3ccc(OC)c(OC)c3OC)c2C(=O)Nc2ccc(OC)cc2OC)C1	inconclusive: 2.27% [signal inhibitor]	
CCCC(=O)NCC(c1ccc2c(c1)OCO2)N1CCN(c2ccccc2)CC1 (configuration not stated)	inactive: 1.75%	
CCN1C(=O)/C(=C2/Sc3ccc(OC)cc3N2C)SC1=Nc1cccc(O)c1	inconclusive: 8.08% [signal activator]	
C/C(=C\CNc1ncnc2c1ncn2[C@@H]1O[C@@H](CO)[C@@H](O)[C@H]1O)CO	inactive: -0.0699% [at 11.4 µM, scaled: untreated 0%, proteasome inhibitor 100%]	
CCCn1c(SCC(=O)Nc2ccc3c(c2)OCO3)nc2c1c(=O)n(C)c(=O)n2C	inactive: -0.413%	
COc1ccccc1C1CC(=O)Nc2cc3c(cc21)OCCO3 (configuration not stated)	inactive: 8.8%	
COc1ccccc1CNC(=O)c1ccc2nc(-c3ccccc3)c(-c3ccccc3)nc2c1	inconclusive: 3.82% [signal inhibitor]	
CCn1cc(C(=O)NCc2ccc(C)cc2)c(=O)c2cc(S(=O)(=O)N3CCCCCC3)ccc21	inconclusive: -1.3% [signal inhibitor]	
COc1ccc(NC(=O)C2CCN(c3nc(C)nc4c3CCC4)CC2)cc1	inconclusive: 3.25% [signal inhibitor]	
O=C(CCc1nc2cccnc2n1Cc1cccs1)Nc1cccc(Cl)c1	inconclusive: -0.87% [signal inhibitor]	
CCCCN(C)CCCNC(=O)CC1Oc2ccccc2NC1=O (configuration not stated)		inconclusive: 12.6 µM [signal inhibitor, partial curve]
CCOC(=O)c1cc(-c2ccccc2)n(CCC(=O)Nc2ccc(Cl)c(C(F)(F)F)c2)c1C	inactive: -0.623%	
Cc1cc2ccccc2n1CCNC(=O)C1CC1	inactive: 1.18%	
COc1ccc(CCNC(=O)CSc2ncc3c(n2)-c2cc(Cl)ccc2N(Cc2ccccc2)S3(=O)=O)cc1OC	inactive: 1.12%	
COc1ccc(CNC(=O)c2ccc3c(c2)N(Cc2cccc(Cl)c2)C(=O)c2ccccc2S3)c(OC)c1	inconclusive: 0.801% [signal inhibitor]	
Nc1cc2c(nc3c4ccccc4c(N)cc3[n+]2-c2cccc3ccccc23)c2ccccc12 (tested in a mixture with another compound)	inactive: 1.99% [at 11.4 µM, scaled: untreated 0%, proteasome inhibitor 100%]	
COc1cc(OC)cc(C(=O)NCc2n[nH]c(=S)n2-c2ccccc2OC)c1		inconclusive: 1.58 µM [signal inhibitor, full curve]

Compound	IkBa stabilization activation	Potency
Cc1cccn2c(Nc3ccccc3)c(-c3ccc(N4CCOCC4)cc3)nc12	inconclusive: 14.5% [signal inhibitor]	
CC(C)c1ccc(OC(=O)c2cc(-c3ccc4c(c3)OCCO4)on2)cc1	inactive: 0.228%	
CCOC(=O)N1CCN(C(=O)c2ccc3c(=O)n(Cc4ccccc4)c(=S)[nH]c3c2)CC1	inconclusive: 5.01% [signal inhibitor]	
COc1ccccc1NC(=O)CCn1cnc2ccccc2c1=O	inactive: 3.55%	
Cc1ccc2nc(-c3ccc(Cl)c(NC(=O)c4cccnc4)c3)oc2c1	inactive: -1.99%	
CCOc1ccc(NC(=O)CSc2nccn2-c2cccc(C)c2C)cc1	inconclusive: 0.726% [signal inhibitor]	
CN(C(=O)c1cc2c(=O)oc3ccccc3c2s1)c1ccc(F)cc1	inactive: -1.92%	
CCNc1ncc2nc(C)c(=O)n(Cc3cccs3)c2n1	inactive: -0.542% [at 11.4 µM, scaled: untreated 0%, proteasome inhibitor 100%]	
O=S(=O)(NCC(c1ccco1)S(=O)(=O)c1cccs1)c1ccc(F)c(C(F)(F)F)c1 (configuration not stated)	inconclusive: 2.18% [signal inhibitor]	
Cc1cc(C(=O)CSc2nc3ccc(Cl)cc3[nH]2)c(C)n1C	inconclusive: 2.28% [signal inhibitor]	
CCOC(=O)C1CCN(S(=O)(=O)c2cc(-c3onc(C)c3C)ccc2OC)CC1	inactive: 0.525%	
Cc1ccc2nc(Nc3ncc4c(n3)CCCC4=O)nc(C)c2c1	inactive: -4.34%	
Cc1cc(NC(=O)c2ccc3c(c2)N(Cc2cccc(Cl)c2)C(=O)c2ccccc2S3=O)ccc1Br (configuration not stated)	inconclusive: 4.7% [signal inhibitor]	
O=C(c1csnn1)N1CCC[C@@]2(CCN(Cc3ccccc3)C2)C1	inactive: -2.6% [at 11.4 µM, scaled: untreated 0%, proteasome inhibitor 100%]	
CC(C)(C)N1C(=O)c2ccc(C(=O)Nc3nccs3)cc2C1=O	inactive: 1.48%	
CC(=O)c1c(C)n(CC(=O)NCc2ccc3c(c2)OCO3)c2ccccc12	inconclusive: 9.46% [signal inhibitor]	
CCc1nc(N2CCCCC2)c2oc3ccccc3c2n1	inactive: 2.78%	
COc1cc(/C=C\C(=O)N2CCC=CC2=O)cc(OC)c1OC		inconclusive: 3.98 µM [signal inhibitor, full curve]
Cc1nn(-c2ccccc2)c(OC(=O)c2ccccc2F)c1S(=O)(=O)c1ccccc1	inconclusive: 5.18% [signal inhibitor]	
CCn1c(=O)c2cc(C(=O)N3CCN(c4cccc(Cl)c4)CC3)sc2c2ccccc21	inconclusive: 0.408% [signal inhibitor]	
COc1ccc(C(=O)Nc2ccc(Cl)cc2C(=O)NCc2ccco2)cc1OC	inconclusive: 2.9% [signal inhibitor]	
Cc1cc(C)c(C#N)c(SCC(=O)OC2CCCCC2)n1	inconclusive: 14.1% [signal inhibitor]	
CCOc1ccccc1Nc1nc(-c2cccc(Cl)c2)c2c(n1)-c1ccccc1OC2	inconclusive: -2.41% [signal inhibitor]	

Compound	IkBa stabilization activation	Potency
COc1ccc(-c2noc(-c3ccc(NCc4ccco4)c([N+](=O)[O-])c3)n2)cc1	inconclusive: 5.12% [signal inhibitor]	
CCOC(=O)c1cccc(NC(=O)CCc2c(C)nc3cc(-c4ccc(Cl)cc4)nn3c2C)c1		inconclusive: 31.6 µM [signal inhibitor, partial curve]
CCc1nnc(SCC(=O)N(C)c2ccccc2)c2cc3sccc3n12	inconclusive: 14.2% [signal inhibitor]	
Cc1nn(CC(=O)NC2CCCCC2)c(=O)c2cc3cc(F)ccc3n12	inactive: 1.55%	
CCc1ccc(Oc2nc3c(C)cccn3c(=O)c2/C=C(\C#N)c2nc3ccccc3[nH]2)cc1	inconclusive: 12.7% [signal inhibitor]	
Cc1cc(C)nc(-n2nc(C)cc2Nc2ccccc2)n1	inconclusive: 1.21% [signal inhibitor]	
COc1ccc(NC(=O)c2sc3nc4c(cc3c2N)CN(C(C)C)CC4)c(OC)c1	inconclusive: 0.899% [signal inhibitor]	
Cc1cccc(C(=O)NCC(c2ccc3c(c2)OCO3)N2CCN(c3ccccc3F)CC2)c1 (configuration not stated)	inconclusive: 5.96% [signal inhibitor]	
COc1cc(-c2noc(CSc3nc(-c4ccccc4)cc(=O)[nH]3)n2)cc(OC)c1OC	inconclusive: 0.561% [signal inhibitor]	
CC(C)C[C@@H](CC(=O)N[C@@H](CCC(=O)O)CC(=O)O)NC(=O)[C@@H]1CNCC[C@H]1NC(=O)C[C@H](CCCN)NC(=O)C[C@H](Cc1ccccc1)NC(=O)[C@@H]1CNCC[C@H]1N	inactive: 3.95%	
CCOc1ccc2nc(-c3ccccc3)[nH]c2c1	inconclusive: 11.3% [signal inhibitor]	
Cc1cc(=O)n2[nH]c(NCc3ccc(F)cc3)nc2n1	inactive: 0.793%	
COc1ccc(OC)c(NC(=O)Cn2cnc3sc(C)c(S(=O)(=O)N4CCN(c5ccccc5OC)CC4)c3c2=O)c1	inconclusive: 0.632% [signal inhibitor]	
COc1ccc(NC(=O)c2ccc3c(=O)n4nc(Nc5cc(C)ccc5C)sc4nc3c2)cc1	inconclusive: -3.46% [signal inhibitor]	
O=C1CN(C(=O)c2ccc(Br)o2)C(c2ccc(F)cc2)c2cc(F)ccc2N1 (configuration not stated)	inconclusive: 7.13% [signal inhibitor]	
Cc1cc(C)cc(OCc2nnc(SCC(=O)c3ccccc3)o2)c1	inconclusive: 4.77% [signal inhibitor]	
CCOC(=O)c1sc2ncn(C(CC)C(=O)OCC)c(=O)c2c1C (configuration not stated)	inconclusive: 2.7% [signal inhibitor]	
Nc1cc([N+](=O)[O-])ccc1C(=O)O	inactive: 14%	
Cc1c(C)c2cc(Cl)c(O)c(CN(C)C)c2oc1=O	inactive: 1.8%	
c1ccc(Cc2nnc(SCc3nc(-c4cccs4)no3)n2-c2ccccc2)cc1	inconclusive: 2.5% [signal inhibitor]	
COc1ccc(Cn2nnnc2C(CC(C)C)N2CCN(c3ccccc3)CC2)cc1 (configuration not stated)	inactive: 1.95%	
